From article PMC12528901
Results are given in words; binding and its absence hold for the method and conditions named. Binding seen in cells or lysates may run through a third protein. Some entries that bind do so weakly or less than the wild type. For some assays here: Tags and fused reporters may be left off the sequences shown.

Chains of the proteins cited; added tags and fusions are not shown. Lines headed by an entry give the natural chain unless they say otherwise; changes in a name come on top. A line that says so, or that is headed by a name, gives the form on record, which may keep a tag or linker.
UniProt Q8VDZ4: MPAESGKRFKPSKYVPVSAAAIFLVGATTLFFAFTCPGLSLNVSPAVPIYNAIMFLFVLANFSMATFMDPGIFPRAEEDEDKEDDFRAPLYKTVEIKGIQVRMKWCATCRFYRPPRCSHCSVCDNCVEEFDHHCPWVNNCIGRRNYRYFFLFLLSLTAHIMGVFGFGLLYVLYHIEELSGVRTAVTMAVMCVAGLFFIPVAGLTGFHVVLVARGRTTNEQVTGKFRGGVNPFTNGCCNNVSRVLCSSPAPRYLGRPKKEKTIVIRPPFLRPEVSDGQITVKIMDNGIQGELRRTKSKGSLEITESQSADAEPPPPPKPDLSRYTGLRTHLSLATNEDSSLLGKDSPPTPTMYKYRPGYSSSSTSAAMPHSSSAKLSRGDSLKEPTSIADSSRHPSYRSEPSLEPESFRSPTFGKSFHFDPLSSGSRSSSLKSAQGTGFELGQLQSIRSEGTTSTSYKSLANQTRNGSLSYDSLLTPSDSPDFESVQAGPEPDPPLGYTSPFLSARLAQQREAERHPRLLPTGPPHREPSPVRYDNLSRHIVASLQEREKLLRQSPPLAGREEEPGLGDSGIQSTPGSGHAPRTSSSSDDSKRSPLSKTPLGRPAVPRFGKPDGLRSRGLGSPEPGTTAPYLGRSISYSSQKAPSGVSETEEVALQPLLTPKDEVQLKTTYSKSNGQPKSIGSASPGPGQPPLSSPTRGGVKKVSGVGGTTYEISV
HA-Zdhhc5^ANYA (mouse Zdhhc5 double mutant) (Q8VDZ4, form named): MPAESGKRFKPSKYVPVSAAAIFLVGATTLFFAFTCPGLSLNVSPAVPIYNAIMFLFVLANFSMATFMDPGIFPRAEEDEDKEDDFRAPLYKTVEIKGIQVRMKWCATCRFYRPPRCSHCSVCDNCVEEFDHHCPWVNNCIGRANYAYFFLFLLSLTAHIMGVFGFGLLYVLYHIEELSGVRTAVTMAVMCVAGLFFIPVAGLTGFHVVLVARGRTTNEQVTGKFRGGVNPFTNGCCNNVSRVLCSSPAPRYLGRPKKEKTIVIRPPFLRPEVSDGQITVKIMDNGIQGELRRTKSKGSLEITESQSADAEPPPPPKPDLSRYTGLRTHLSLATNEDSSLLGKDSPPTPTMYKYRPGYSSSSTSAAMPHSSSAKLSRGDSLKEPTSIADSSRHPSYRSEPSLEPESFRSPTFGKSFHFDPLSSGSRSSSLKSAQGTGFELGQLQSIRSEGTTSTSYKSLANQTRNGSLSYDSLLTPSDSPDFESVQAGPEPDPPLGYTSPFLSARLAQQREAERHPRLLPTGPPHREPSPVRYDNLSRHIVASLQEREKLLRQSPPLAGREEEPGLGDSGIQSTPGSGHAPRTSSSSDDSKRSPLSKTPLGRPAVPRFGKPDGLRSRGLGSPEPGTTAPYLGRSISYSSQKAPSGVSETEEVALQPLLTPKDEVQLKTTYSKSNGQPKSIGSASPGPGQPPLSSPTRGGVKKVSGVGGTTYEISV
HA-Zdhhc5^RNYA (mouse Zdhhc5 Arg147Ala) (Q8VDZ4, form named): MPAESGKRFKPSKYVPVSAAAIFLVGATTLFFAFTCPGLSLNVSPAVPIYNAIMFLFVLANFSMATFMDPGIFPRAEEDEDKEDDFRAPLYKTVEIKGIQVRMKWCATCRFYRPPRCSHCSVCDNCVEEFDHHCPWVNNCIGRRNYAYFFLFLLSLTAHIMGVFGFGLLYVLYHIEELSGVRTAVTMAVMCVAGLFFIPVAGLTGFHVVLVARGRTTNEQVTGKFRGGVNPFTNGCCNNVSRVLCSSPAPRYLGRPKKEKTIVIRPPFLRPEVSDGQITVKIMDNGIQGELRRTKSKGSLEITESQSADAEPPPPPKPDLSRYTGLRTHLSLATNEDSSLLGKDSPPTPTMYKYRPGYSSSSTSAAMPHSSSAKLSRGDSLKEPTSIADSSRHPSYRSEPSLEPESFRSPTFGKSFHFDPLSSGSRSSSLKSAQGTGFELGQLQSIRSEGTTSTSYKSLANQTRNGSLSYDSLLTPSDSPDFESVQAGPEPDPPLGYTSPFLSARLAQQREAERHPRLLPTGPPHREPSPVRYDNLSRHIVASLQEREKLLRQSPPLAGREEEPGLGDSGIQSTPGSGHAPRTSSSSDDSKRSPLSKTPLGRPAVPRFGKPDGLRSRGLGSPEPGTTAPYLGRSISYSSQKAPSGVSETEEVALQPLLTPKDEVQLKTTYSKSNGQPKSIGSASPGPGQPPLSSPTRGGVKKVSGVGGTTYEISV
HA-Zdhhc5^ΔC-term (mouse Zdhhc5 lacking the C terminus) (Q8VDZ4, form named): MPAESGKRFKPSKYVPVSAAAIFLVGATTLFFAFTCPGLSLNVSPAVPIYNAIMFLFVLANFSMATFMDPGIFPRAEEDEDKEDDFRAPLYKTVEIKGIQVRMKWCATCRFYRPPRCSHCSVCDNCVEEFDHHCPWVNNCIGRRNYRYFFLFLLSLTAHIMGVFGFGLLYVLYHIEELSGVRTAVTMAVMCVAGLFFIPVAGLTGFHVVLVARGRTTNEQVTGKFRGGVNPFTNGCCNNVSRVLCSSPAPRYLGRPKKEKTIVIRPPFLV
UniProt Q7Z5G4: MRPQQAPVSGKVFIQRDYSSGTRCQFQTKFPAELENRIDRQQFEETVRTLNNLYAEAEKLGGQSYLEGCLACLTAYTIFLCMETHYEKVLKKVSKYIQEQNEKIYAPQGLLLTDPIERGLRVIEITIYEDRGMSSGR

What was measured:
Assay in all cases: co-IP; HA-tagged mouse Zdhhc proteins transfected into 293T ZDHHC5 KO and control cells; lysis in 50 mM Tris-HCl pH 7.4, 150 mM NaCl, 2 mM EDTA, 1% DDM; anti-HA magnetic beads overnight at 4 °C; washes in TBS with 0.5% DDM; blots for endogenous GOLGA7 or ZDHHC9
[1] = target: T1, HA-tagged mouse Zdhhc24 (mouse) (UniProt Q6IR37)
T1 sequence: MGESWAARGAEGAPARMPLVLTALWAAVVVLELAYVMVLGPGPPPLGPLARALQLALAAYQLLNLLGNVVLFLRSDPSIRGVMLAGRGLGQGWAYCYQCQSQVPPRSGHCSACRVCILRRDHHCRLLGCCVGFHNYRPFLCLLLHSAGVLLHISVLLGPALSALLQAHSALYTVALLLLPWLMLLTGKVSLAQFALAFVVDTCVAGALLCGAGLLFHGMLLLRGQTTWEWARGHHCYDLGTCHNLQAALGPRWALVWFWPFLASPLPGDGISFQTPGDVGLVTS

[2] = target: HA-Zdhhc5^ANYA (mouse Zdhhc5 double mutant) (mouse) (UniProt Q8VDZ4)
[3] = target: HA-Zdhhc5^RNYA (mouse Zdhhc5 Arg147Ala) (mouse) (UniProt Q8VDZ4)
[4] = target: T2, HA-tagged mouse Zdhhc3 (mouse) (UniProt Q8R173)
T2 sequence: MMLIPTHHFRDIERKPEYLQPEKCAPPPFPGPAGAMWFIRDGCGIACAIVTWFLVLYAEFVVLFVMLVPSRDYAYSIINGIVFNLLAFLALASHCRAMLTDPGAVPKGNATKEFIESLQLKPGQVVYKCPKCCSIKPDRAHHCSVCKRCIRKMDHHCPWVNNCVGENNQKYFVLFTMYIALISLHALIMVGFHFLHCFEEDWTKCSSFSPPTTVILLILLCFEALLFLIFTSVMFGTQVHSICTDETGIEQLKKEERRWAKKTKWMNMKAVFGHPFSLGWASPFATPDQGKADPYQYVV

[5] = target: T3, HA-tagged mouse Zdhhc11 (mouse) (UniProt Q14AK4)
T3 sequence: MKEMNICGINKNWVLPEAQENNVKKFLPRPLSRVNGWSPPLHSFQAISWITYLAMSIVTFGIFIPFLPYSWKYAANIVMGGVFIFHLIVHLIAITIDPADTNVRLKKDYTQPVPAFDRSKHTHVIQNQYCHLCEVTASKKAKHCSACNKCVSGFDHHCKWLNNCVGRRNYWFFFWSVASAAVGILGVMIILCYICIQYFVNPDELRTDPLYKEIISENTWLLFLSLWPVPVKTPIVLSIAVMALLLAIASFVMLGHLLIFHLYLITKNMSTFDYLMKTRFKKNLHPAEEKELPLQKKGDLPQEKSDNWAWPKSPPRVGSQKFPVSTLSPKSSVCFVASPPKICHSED

[6] = target: T4, HA-tagged mouse Zdhhc12 (mouse) (UniProt Q8VC90)
T4 sequence: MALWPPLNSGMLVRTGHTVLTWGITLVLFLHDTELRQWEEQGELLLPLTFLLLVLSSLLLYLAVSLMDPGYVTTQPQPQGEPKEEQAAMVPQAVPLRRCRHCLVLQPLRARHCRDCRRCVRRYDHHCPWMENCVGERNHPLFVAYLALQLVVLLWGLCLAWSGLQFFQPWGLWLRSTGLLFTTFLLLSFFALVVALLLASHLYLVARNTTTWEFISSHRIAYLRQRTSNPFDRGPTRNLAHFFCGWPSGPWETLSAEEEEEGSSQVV

[7] = target: T5, HA-tagged mouse Zdhhc6 (mouse) (UniProt Q9CPV7)
T5 sequence: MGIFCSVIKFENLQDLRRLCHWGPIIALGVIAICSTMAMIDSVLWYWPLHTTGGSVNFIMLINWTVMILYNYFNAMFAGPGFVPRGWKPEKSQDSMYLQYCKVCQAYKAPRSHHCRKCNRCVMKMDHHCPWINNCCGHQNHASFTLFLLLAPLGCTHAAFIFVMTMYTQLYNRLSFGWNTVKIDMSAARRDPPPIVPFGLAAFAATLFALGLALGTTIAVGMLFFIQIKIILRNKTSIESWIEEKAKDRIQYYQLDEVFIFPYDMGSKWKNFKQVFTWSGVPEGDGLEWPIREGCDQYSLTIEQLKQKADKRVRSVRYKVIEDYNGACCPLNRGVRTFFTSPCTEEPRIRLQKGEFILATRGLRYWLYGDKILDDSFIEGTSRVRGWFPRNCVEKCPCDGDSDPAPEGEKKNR

[8] = target: HA-Zdhhc5^ΔC-term (mouse Zdhhc5 lacking the C terminus) (mouse) (UniProt Q8VDZ4)

For “endogenous human golgin A7 (GOLGA7) (from UniProt Q7Z5G4 1-137)”, the binding [1] was “no binding”, the binding [2] was “no binding” and the binding [3] was “no binding”. For the same substance, the binding [4] was “no binding”, the binding [5] was “no binding” and the binding [6] was “no binding”. For the same substance, the binding [7] was “no binding” and the binding [8] was “binds”.
